Assay results taken from PubChem BioAssay AID651820 (National Center for Advancing Translational Sciences (NCATS), 2012).
In all, about 340,000 compounds went through this assay and about 12,000 (3.5%) were called active. Inconclusive results, whose numbers are uncertain, are shown with a selection of clear calls. The call rests on the fitted dose curve; in most records, active means well fitted inhibition curve with a large enough effect; inconclusive means small, poorly fitted or top-dose-only effect, or another doubt; inactive means no such curve, though single readings can be large or run the other way. Potencies of inconclusive entries are left out as doubtful fits.

assay: qHTS Assay for Inhibitors of Hepatitis C Virus (HCV); conditions: Huh7.5.1 HCVcc-Cre (HCVcc is cell-culture hepatitis C virus) infection, luciferase reporter, 44 h; activity change, negative = inhibition: at 41.8 µM (top of the series) unless noted
Summary of the method: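 Infectious HCV cell culture screen: compound-treated cells (1,000/well, pre-plated 4 h) are infected with HCVcc-Cre at roughly 0.5 moi and grown 44 h. Infection is quantified by luciferase signal after 15 min substrate incubation at room temperature.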
On the % scale 0 is the no-effect control and ±100 the full control effect; potency means the concentration at half of the fitted maximal effect; tags describe the fitted curve by direction and shape.

SMILES	Potency	activity change, negative = inhibition
N#C/C(=C/Nc1ccccc1)c1ccsc1	inconclusive [inhibitor, single point]	
O=C1CN2C(=Nc3ccc(Br)cc3C2c2ccccc2)CCN1 (stereo not drawn)	inactive	
COc1ccc(-c2noc(CN(C)C(=O)c3ccco3)n2)cc1	inconclusive [inhibitor, single point]	
Nc1ccc2c(c1)C(=O)c1ccc(Br)cc1-2	inconclusive [inhibitor, full curve]	
CCNc1nc(NC(C)C)nc(OCCOC(=O)Nc2ccccc2)n1	inconclusive [inhibitor, single point]	
Cn1cccc1/C=N/N1CCN(Cc2ccccc2)CC1	inactive	
CCc1cc(C(c2ccccn2)N2CCN(C)CC2)c(NC(=O)c2ccccc2)s1 (stereo not drawn)	inconclusive [inhibitor, single point]	
COc1ccc(/C=C/C(=O)NC(=S)NCc2ccccc2)cc1OC	inconclusive [inhibitor, full curve, poor fit]	
COc1ccc(NC(=O)N2CCC(n3cnc4ccccc43)CC2)cc1	inactive	
COc1cccc(C2c3cc4c(cc3OC(N3CCOCC3)C2C)OCO4)c1O (stereo not drawn)	inactive	
O=C(Nc1cccc(C(=O)N2CCOCC2)c1)C1CC1	inconclusive [inhibitor, single point]	
CC1=C/C(=C(\c2cc(C)c(O)c(Br)c2)c2ccccc2S(=O)(=O)O)C=C(Br)C1=O	inactive	
O=C(COc1ccc(S(=O)(=O)Nc2ccccc2)cc1)NCc1ccncc1	inactive	
N/C(=N\OC(=O)c1ccc(Cl)cc1)c1[nH]ncc1Br	inactive	
COc1ccc(-c2cc(C(=O)NC3CCCC3)c3ccccc3n2)cc1	inconclusive [inhibitor, single point]	
CCOc1ccc(/C(O)=C2/C(=O)C(=O)N(CC3CCCO3)C2c2cccs2)cc1 (stereo not drawn)	inactive	
CC(C)n1cc(CN2CCC(C(=O)Nc3cccc(-c4cscn4)c3)CC2)cn1	inconclusive [inhibitor, single point]	
Cc1cc(NC(=O)Nc2ccccc2)n(-c2ccccc2)n1	inconclusive [inhibitor, partial curve]	
O=C(c1ccc(Br)cc1)c1cc(-c2ccccn2)c(N2CCOCC2)s1	inconclusive [inhibitor, partial curve]	
Cc1ccc(S(=O)(=O)NC(CC(=O)NCC2CCCO2)c2ccco2)cc1 (stereo not drawn)	inconclusive [inhibitor, single point]	
CC(=O)NC1=NC(=O)/C(=C/c2cc(C)n(-c3ccc(NC(C)=O)cc3)c2C)S1	inconclusive [inhibitor, partial curve, poor fit]	
COc1ccc(OC)c(-c2cc(C(=O)Nc3cccc(Cl)c3)no2)c1	inconclusive [inhibitor, full curve, poor fit]	
O=C(COC(=O)/C=C/c1ccc([N+](=O)[O-])cc1)NC1CCCCC1	inactive	
O=C(N/N=C/c1ccccc1)c1[nH]c2ccc(Br)cc2c1-c1ccccc1	inconclusive [inhibitor, partial curve]	
O=C(O)CN1C(=O)/C(=C\c2cn(-c3ccccc3)nc2-c2ccccc2)SC1=S	inactive	

SMILES	Potency	activity change, negative = inhibition
COc1ccc(NS(=O)(=O)c2ccc(NC(=O)c3ccc(CN4CCOCC4)cc3)cc2)cc1	active: 1.41 µM	
COc1ccccc1-c1sc2cc3c(cc2c1-c1ccc(O)cc1)OCO3	inconclusive [inhibitor, single point]	
CN(c1cccnc1)c1ncnc2[nH]ncc12	inactive	
ON=C1c2ccccc2-c2ccc(Br)cc21	inconclusive [inhibitor, single point]	
Cc1cccc(C)c1Nc1c(-c2ccccn2)nc2ccccn12	active: 10 µM	
COc1ccc(-n2cc(-c3ccccc3)c3c(NCCCN4CCOCC4)ncnc32)cc1	inconclusive [inhibitor, single point]	
Cc1ccc(-c2csc(NCCn3c(C)nc4cc(C(F)(F)F)ccc43)n2)cc1	inconclusive [inhibitor, single point]	
COC(=O)C1=C(C)N(Cc2ccco2)C(=O)/C1=C\c1ccc(N(C)C)cc1	inactive	
COC(=O)c1ccc2c(=O)n(Cc3ccco3)c(SCC(=O)Nc3ccc(C)c(Cl)c3)nc2c1	inactive	
COc1ccc(NC(=O)CCSCCc2ccccn2)cc1OC	inactive	
CC(Sc1nc(N)cc(N)n1)C(=O)Nc1ccc(N2CCOCC2)cc1 (stereo not drawn)	inactive	
COc1ccc(-c2cc(C(=O)Nc3ccc(C)c(N)c3)c3ccccc3n2)cc1	active: 11.2 µM	
O=C(COC(=O)/C=C/c1cccs1)NC(c1ccccc1)c1ccccc1	inconclusive [inhibitor, single point]	
c1ccc(-c2cc(-c3nnc4n3N=C(c3ccc5ccccc5c3)CS4)[nH]n2)cc1	inactive	
COc1ccc(/C=N/NC(=O)c2cc(-c3ccccc3OC(C)C)nc3ccccc23)cc1CN1CCOCC1	inconclusive [inhibitor, single point]	
Nc1ccc(C(=O)N/N=C2\CCCc3c2[nH]c2ccccc32)cc1	inconclusive [inhibitor, partial curve, poor fit]	
CCc1ccc(S(=O)(=O)Nc2c(NC3CCCCC3)c3ccccc3oc2=O)cc1	inconclusive [inhibitor, single point]	
COc1cc(C2c3cc4c(cc3OC(N3CCCC3)C2C)OCO4)cc(OC)c1O (stereo not drawn)	inconclusive [inhibitor, single point]	
COCCOC(=O)c1[nH]c2c(c1C)C(=O)CC(c1ccccc1)C2 (stereo not drawn)	inconclusive [inhibitor, full curve]	
Cn1c(SCc2cccc(C#N)c2)nc2ccccc2c1=O	active: 31.6 µM	
O=C(CCCn1c(=O)[nH]c2cc(Cl)ccc2c1=O)NCCCN1CCN(c2ccc(F)cc2)CC1	active: 7.94 µM	
O=C(Nc1ccc2c(c1)OCCO2)c1ccc(Cl)c(S(=O)(=O)N2CCCCC2)c1	inconclusive [inhibitor, single point]	
COc1cccc(/C=C2/Oc3ccccc3N(CC(=O)NCC3CCCO3)C2=O)c1 (stereo not drawn)	inconclusive [inhibitor, partial curve]	
Nc1cccc(CCc2nc3cc4ccccc4cc3[nH]2)c1	inconclusive [inhibitor, partial curve]	
CN(C)S(=O)(=O)Oc1ccsc1C(=O)Nc1ccc(Cl)c(Cl)c1	inconclusive [inhibitor, single point]	

SMILES	Potency	activity change, negative = inhibition
Brc1ccc(-c2csc(N3CCC(c4ccccc4)C3)n2)cc1 (stereo not drawn)	inconclusive [inhibitor, single point]	
COc1cc([C@H]2OC[C@H]3[C@@H]2CO[C@H]3c2ccc(O)c(OC)c2)ccc1O	inactive	
O=C1CCN(S(=O)(=O)c2ccccc2)CCN1CCOCc1cccc(F)c1	inactive	
CCOc1ccccc1/C=N/Nc1ccnc(=O)[nH]1	active: 11.2 µM	
CN(C)c1nc(-c2ccccn2)nnc1-c1ccccc1	inconclusive [inhibitor, single point]	
S=C(S)N1CCCC1	inconclusive [inhibitor, partial curve]	
Cc1noc(C)c1CC(=O)NC1CC(C)(C)Cc2c1cnn2-c1ccccc1 (stereo not drawn)	inconclusive [inhibitor, partial curve]	
COc1ccccc1CN(C)C(=O)c1cc2ccccc2o1	inactive	
CCc1cccc(C)c1NC(=O)c1cc(=O)[nH]c2ccc(S(=O)(=O)N3CCOCC3)cc12	inconclusive [inhibitor, single point]	
Cc1ccc(S(=O)(=O)NCC(=O)NNC(=O)c2ccc(Br)cc2)cc1C	inconclusive [inhibitor, partial curve]	
Cn1ncc(Cl)c1C(=O)Nc1ccc2c(c1)CCC2	inactive	
Cc1cc(C=O)c(C)n1-c1ccc(N2CCCCC2)c([N+](=O)[O-])c1	inconclusive [inhibitor, single point]	
O=C(Cn1nnc(-c2cccs2)n1)NNC(=O)c1ccccc1Cl	inactive	
COCC1CCCCN1Cc1cn(-c2ccccc2)nc1-c1ccc2c(c1)OCO2 (stereo not drawn)	inactive	
Cc1nn(Cc2ccccc2Cl)c(C)c1C(=O)N(C)CC(=O)Nc1cccc(F)c1	inconclusive [inhibitor, full curve]	
Cc1ccc(-c2nc3ccccc3nc2NN)cc1	inactive	
CCCCN(C(=O)c1ccco1)C1CCS(=O)(=O)C1 (stereo not drawn)		inactive: 0.254% [at 8.37 µM]
CCSc1nc(-c2cccnc2)ccc1C#N	inconclusive [inhibitor, partial curve]	
O=C(NCCc1ccco1)C(=O)NCC1OCCCN1S(=O)(=O)c1ccccc1 (stereo not drawn)	inactive	
COc1cc2ccccc2cc1C(=O)Nc1ccccc1Cl	inconclusive [inhibitor, single point]	
COc1ccccc1-c1sc2cc3c(cc2c1-c1ccc(OCCN2CCCCC2)cc1)OCO3	inconclusive [inhibitor, single point]	
O=C(Nc1ccc(Oc2cccnc2)cc1)C1CCN(Cc2cccc(Cl)c2)CC1	inconclusive [inhibitor, single point]	
COC(=O)C1=C(c2ccc(-c3ccccc3)c(F)c2)C[C@@H]2CC[C@H]1N2C(=O)NCc1cc(C)oc1C(F)(F)F	inconclusive [inhibitor, full curve]	
